# Test results reported in PubChem BioAssay AID504333 (National Center for Advancing Translational Sciences (NCATS), 2011).
# Values joined by “and” are separate entries in the source; they are usually repeats but may differ in a detail not shown here. Identical values can stand only once. Screen size: about 360,000 compounds; about 16,000 (4.4%) were called active. Inconclusive results, whose numbers are uncertain, are shown with a selection of clear calls. The call rests on the fitted dose curve; in most records, active means well fitted inhibition curve with a large enough effect; inconclusive means small, poorly fitted or top-dose-only effect; inactive means no such curve, though single readings can be large or run the other way. Potencies beside an inconclusive call are fits to weak or partial responses and may not hold up.
# Target: Bromodomain adjacent to zinc finger domain protein 2B (Homo sapiens) (UniProt Q9UIF8)
# Assay: qHTS Assay for Inhibitors of BAZ2B; further: nearly all actives have a fitted effect of over 60% in size
# Conditions: AlphaScreen BAZ2B-H3K14Ac peptide displacement; series mostly up to 114 µM
# Summary of the method: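 BAZ2B 50 nM plus b-H3(5-23)K14Ac 50 nM, PBS pH 7.4/0.01% Tween-20, 30 min RT; compound added (max 110 uM), 30 min RT; streptavidin donor/Ni-chelate acceptor beads 10 ug/mL final, 20 min dark; AlphaScreen read.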
# Potency means the concentration at half of the fitted maximal effect; tags describe the fitted curve by direction and shape.
# Sequence of UniProt Q9UIF8 (Q9UIF8 whole entry, looked up, the tested form may be a part): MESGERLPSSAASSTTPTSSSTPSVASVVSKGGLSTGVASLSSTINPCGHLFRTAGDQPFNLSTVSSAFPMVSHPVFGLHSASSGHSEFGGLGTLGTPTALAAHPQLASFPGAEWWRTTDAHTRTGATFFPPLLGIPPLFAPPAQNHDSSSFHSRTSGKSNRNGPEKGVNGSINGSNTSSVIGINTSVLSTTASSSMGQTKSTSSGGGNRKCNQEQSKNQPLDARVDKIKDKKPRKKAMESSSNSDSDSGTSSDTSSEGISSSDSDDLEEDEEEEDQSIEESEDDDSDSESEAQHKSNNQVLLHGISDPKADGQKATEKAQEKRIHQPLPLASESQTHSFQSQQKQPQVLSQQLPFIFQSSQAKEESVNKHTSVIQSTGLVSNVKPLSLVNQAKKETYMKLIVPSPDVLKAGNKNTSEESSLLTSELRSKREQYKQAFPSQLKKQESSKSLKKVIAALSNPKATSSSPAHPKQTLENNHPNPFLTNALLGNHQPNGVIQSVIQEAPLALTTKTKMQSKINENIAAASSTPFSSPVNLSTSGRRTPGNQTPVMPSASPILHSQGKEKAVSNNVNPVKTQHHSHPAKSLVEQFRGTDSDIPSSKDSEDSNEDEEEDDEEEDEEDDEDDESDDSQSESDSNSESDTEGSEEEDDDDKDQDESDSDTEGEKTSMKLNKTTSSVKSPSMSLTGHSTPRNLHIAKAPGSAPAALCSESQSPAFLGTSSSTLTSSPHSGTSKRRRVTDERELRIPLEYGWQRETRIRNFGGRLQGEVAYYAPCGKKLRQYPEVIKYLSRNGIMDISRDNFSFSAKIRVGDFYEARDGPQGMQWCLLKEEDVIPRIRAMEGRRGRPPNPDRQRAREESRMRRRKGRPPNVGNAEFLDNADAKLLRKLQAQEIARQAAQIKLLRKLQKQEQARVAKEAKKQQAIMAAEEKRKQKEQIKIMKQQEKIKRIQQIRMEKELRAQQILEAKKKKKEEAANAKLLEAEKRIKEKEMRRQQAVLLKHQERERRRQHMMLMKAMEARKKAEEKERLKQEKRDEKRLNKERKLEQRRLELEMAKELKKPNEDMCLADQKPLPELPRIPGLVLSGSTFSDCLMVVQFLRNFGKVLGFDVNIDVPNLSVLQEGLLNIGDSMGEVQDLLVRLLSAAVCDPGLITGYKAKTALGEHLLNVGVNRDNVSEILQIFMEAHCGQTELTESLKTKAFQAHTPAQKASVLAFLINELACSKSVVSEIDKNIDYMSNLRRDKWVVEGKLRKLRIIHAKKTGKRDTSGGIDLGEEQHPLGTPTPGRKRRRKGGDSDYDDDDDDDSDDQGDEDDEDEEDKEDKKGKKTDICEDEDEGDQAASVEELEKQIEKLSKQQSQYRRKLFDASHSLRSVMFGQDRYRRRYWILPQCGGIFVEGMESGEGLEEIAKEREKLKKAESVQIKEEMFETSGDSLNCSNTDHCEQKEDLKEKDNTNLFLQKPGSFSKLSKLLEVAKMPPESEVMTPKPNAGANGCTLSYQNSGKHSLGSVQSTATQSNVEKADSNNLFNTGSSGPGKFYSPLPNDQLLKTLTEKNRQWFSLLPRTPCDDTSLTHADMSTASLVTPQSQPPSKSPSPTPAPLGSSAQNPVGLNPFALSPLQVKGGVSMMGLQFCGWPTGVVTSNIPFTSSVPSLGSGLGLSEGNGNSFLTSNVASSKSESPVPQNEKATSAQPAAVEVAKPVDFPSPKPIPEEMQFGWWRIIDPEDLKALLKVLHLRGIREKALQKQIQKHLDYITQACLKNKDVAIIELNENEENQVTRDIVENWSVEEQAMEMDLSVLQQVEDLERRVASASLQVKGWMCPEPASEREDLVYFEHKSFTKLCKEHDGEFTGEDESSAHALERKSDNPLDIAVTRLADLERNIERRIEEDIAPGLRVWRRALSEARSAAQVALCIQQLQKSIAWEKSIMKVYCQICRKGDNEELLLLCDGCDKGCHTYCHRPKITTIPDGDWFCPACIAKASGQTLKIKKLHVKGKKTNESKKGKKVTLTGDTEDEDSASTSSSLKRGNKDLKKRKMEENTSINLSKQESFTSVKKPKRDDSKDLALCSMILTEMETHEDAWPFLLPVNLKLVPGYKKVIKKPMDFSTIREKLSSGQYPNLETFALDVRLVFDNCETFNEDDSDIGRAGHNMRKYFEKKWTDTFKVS
row,SMILES,Potency
1,COCCC(=O)N1CCC(Oc2ccc(C(=O)N(C)C(C)c3ccon3)cc2)CC1 (stereo not given),inactive
2,O=[N+]([O-])c1cc(Br)c(Nc2ccccc2)c([N+](=O)[O-])c1,active: 14.1 µM
3,COc1ccc(C2CC3(CC(C)(C)NC(=S)N3)Oc3cc(O)cc(C)c32)cc1 (stereo not given),"inconclusive: 89.1 µM [inhibitor, single point]"
4,CCc1ccc(OCc2nnc(SCc3ccc(C(=O)O)cc3)o2)cc1,"inconclusive: 79.4 µM [inhibitor, single point]"
5,COc1ccc(S(=O)(=O)Cc2ccc(C(=O)N3CC(C)CC(C)C3)o2)cc1 (stereo not given),inactive
6,CCn1c(C)c(C)c2cc(C(=O)NCc3ccc(OC)cc3OC)ccc21,"inconclusive: 31.6 µM [inhibitor, full curve]"
7,CCN(CC)S(=O)(=O)c1ccc(NC(=O)c2c(C)oc3ncnc(N4CCOCC4)c23)cc1,inactive
8,CCc1c(C)sc2c1CCN(C(=O)Nc1cc(Cl)c(OC)cc1OC)C2c1ccccc1 (stereo not given),"inconclusive: 25.1 µM [inhibitor, full curve]"
9,c1nc(Nc2ccc(N3CCOCC3)cc2)c2ccsc2n1,"inconclusive: 79.4 µM [inhibitor, single point]"
10,C#CCn1cnc2c(cnn2-c2ccc(F)cc2)c1=O,inactive
11,C=CCN1C(=O)/C(=C/c2ccc(OC(C)=O)c(OCC)c2[N+](=O)[O-])SC1=S,active: 11.2 µM
12,COc1ccc(NC2c3ncccc3C(=O)N2Cc2ccccc2)c(OC)c1 (stereo not given),"inconclusive: 89.1 µM [inhibitor, single point]"
13,CC1Cc2cc(S(=O)(=O)N3CCN(c4ccccc4)CC3)ccc2N1C(=O)C1CC1 (stereo not given),"inconclusive: 56.2 µM [inhibitor, partial curve]"
14,Nc1ccc(C(=O)Nc2cccc3ncccc23)cc1,"inconclusive: 89.1 µM [inhibitor, single point]"
15,CCN1C(=O)/C(=C\c2ccc3c(c2)OCO3)C(C(=O)OC)=C1C,"inconclusive: 50.1 µM [inhibitor, partial curve]"
16,COc1ccccc1NC(=O)CSc1nnc(Cc2cccn2C)n1CCc1ccccc1,active: 50.1 µM
17,CN(C)S(=O)(=O)c1cccc(NC(=S)NC2CCCCC2)c1,inactive
18,Cc1ccc(CCNC(=O)c2c(C)oc3nc(C)nc(N4CCOCC4)c23)cc1,inactive
19,COc1ccc(OC)c(-n2c(=O)c3ccccc3c3ccccc3c2=O)c1,"inconclusive: 44.7 µM [inhibitor, partial curve]"
20,N#C/C(=C\c1ccc(-c2ccccc2)o1)C(=O)Nn1cnnc1,"inconclusive: 89.1 µM [inhibitor, single point]"
21,O=C(Sc1nnnn1C1CCCCC1)c1cccs1,"inconclusive: 89.1 µM [inhibitor, single point]"
22,O=C(O)C(Cc1ccccc1)N1C(=O)/C(=C/C=C/c2ccco2)SC1=S (stereo not given),active: 8.91 µM
23,CC1CCC(NC(=O)c2ccc(/C=C3\Oc4ccccc4N(C)C3=O)cc2)CC1 (stereo not given),inactive
24,O=C1NC(=O)C2(COC3(CCCC3)OC2)S1,"inconclusive: 89.1 µM [inhibitor, single point]"

row,SMILES,Potency
1,Nc1nonc1C(=O)NCCNCc1cccc(Cl)c1Cl,inactive
2,Cc1ccc(NC(=O)NCCSc2ccc(C)cc2)cc1,inactive
3,O=C1/C(=C/c2ccc([N+](=O)[O-])cc2)Oc2cc(O)ccc21,"inconclusive: 56.2 µM [inhibitor, partial curve]"
4,COc1cc(S(=O)(=O)Nc2ccc(C)cc2)ccc1N=Cc1c(C)[nH]n(-c2ccccc2)c1=O,"inconclusive: 35.5 µM [inhibitor, partial curve]"
5,Cc1cccc(N=C2NC(=O)/C(=C/C=C/c3ccco3)S2)c1C,active: 22.4 µM
6,COc1ccc2[nH]c(C)c(CCN(Cc3cccs3)C(=S)Nc3cccc(F)c3)c2c1,"inconclusive: 50.1 µM [inhibitor, partial curve]"
7,CCN(CC)CCn1c(-c2ccccc2)csc1=Nc1ccccc1,active: 50.1 µM
8,CN(C)C(CNS(=O)(=O)c1ccc2ccccc2c1)c1ccccc1 (stereo not given),"inconclusive: 50.1 µM [inhibitor, partial curve]"
9,CCOC(=O)c1c(-c2ccccc2)nc2ccc(C)cn12,"inconclusive: 89.1 µM [inhibitor, single point]"
10,COc1cc(/C=N/NC(=S)NCCc2ccccc2)cc(OC)c1OC,inactive
11,COc1cccc(CN2CC(C(=O)NCCn3ccc(C)n3)CCC2=O)c1 (stereo not given),inactive
12,CSc1ccc(CN2CCN(Cc3ccccc3)C(CCO)C2)cc1 (stereo not given),inactive
13,CS(=O)(=O)Nc1cccc(C2=NN(C(=O)c3cccc([N+](=O)[O-])c3)C(c3cccs3)C2)c1 (stereo not given),"inconclusive: 70.8 µM [inhibitor, single point]"
14,CCOC(=O)C1CCN(C(=O)CS(=O)(=O)Cc2nc(-c3ccccc3Cl)oc2C)CC1,"inconclusive: 89.1 µM [inhibitor, single point]"
15,CCN(c1ccc(NC(=O)c2ccc(Cl)nc2)cc1)C(C)C,"inconclusive: 39.8 µM [inhibitor, partial curve]"
16,Cc1ccc2nc(COc3ccccc3NC(=O)COc3ccccc3Cl)cc(=O)n2c1,inactive
17,CC1CCCC2(C1)NC(=S)c1c(sc3c1CCCC3)N2 (stereo not given),"inconclusive: 89.1 µM [inhibitor, single point]"
18,O=C(O)c1cccc(CN2C(=O)SC(Nc3cccc4ccccc34)C2=O)c1 (stereo not given),"inconclusive: 79.4 µM [inhibitor, single point]"
19,Cc1cc(OC(=O)c2ccccc2Cl)c([N+](=O)[O-])c(=O)[nH]1,"inconclusive: 100 µM [inhibitor, single point]"
20,CC(=O)N1c2ccc(S(=O)(=O)N3CCC(C(=O)NCc4ccc(N(C)C)cc4)CC3)cc2CC1C (stereo not given),"inconclusive: 70.8 µM [inhibitor, single point]"
21,CCN1CCN(Cc2ccc(NC(=O)c3ccc(C)c(NC(=O)c4nccnc4N)c3)cc2C(F)(F)F)CC1,inactive
22,O=C(CCCN1C(=O)/C(=C\c2ccccc2)SC1=S)Nc1ccc(O)cc1,"inconclusive: 39.8 µM [inhibitor, partial curve]"
23,CCOC(=O)C1=C(C)N=c2s/c(=C\c3ccc(C(=O)O)cc3)c(=O)n2C1c1ccc(F)cc1 (stereo not given),"inconclusive: 50.1 µM [inhibitor, partial curve]"
24,CCc1nn2c(=O)cc(COc3cccc(NC(=O)c4ccco4)c3)nc2s1,"inconclusive: 79.4 µM [inhibitor, single point]"

row,SMILES,Potency
1,Cc1ccc(-n2c(C)c(C)c3c(NCCCO)ncnc32)cc1,"inconclusive: 70.8 µM [inhibitor, single point]"
2,COc1cccc(/C=C2\SC(=S)N(CCCC(=O)NC3=NCCS3)C2=O)c1,"inconclusive: 3.16 µM [inhibitor, full curve]"
3,Cc1cc(-c2ccc(C(C)C)c(S(=O)(=O)N3CCC(C)CC3)c2)on1,inactive
4,Cc1onc(C(=O)N2CCN(c3ccccc3)CC2)c1[N+](=O)[O-],"inconclusive: 79.4 µM [inhibitor, single point]"
5,CCCn1nc([N+](=O)[O-])c(C(C#N)c2nc3ccccc3s2)c(Cl)c1=O (stereo not given),active: 10 µM
6,Cc1nc(/C(=N/O)C(N)=O)cs1,active: 50.1 µM
7,O=C(NC(=S)Nc1ccc(CN2CCOCC2)cc1)c1cccc(F)c1,"inconclusive: 70.8 µM [inhibitor, single point]"
8,COc1cc2c(cc1OC)-c1cc(Nc3ccc(C(=O)O)cc3)nc(=O)n1CC2,active: 70.8 µM
9,CCCN(C(=O)CCCSc1nc2ccccc2[nH]1)c1c(N)n(Cc2ccccc2)c(=O)[nH]c1=O,inactive
10,CCCCN(C)CC(O)Cn1cc(/C=C/C(=O)c2ccc(C)cc2)c2ccccc21 (stereo not given),"inconclusive: 79.4 µM [inhibitor, partial curve] and inconclusive: 44.7 µM [inhibitor, partial curve]"
11,Cc1cccc(Cn2c(N(C)Cc3ccccc3)nc3c2c(=O)[nH]c(=O)n3C)c1,"inconclusive: 25.1 µM [inhibitor, single point]"
12,Cc1cc(C(=O)NCc2ccc(S(N)(=O)=O)cc2)c(C)o1,"inconclusive: 100 µM [inhibitor, single point]"
13,O=C(C1CC1)N1N=C(c2ccccc2)CC1(O)C(F)(F)F (stereo not given),"inconclusive: 89.1 µM [inhibitor, single point]"
14,N#Cc1c(-c2ccccc2)nc(SCC(=O)N2c3ccccc3Sc3ccccc32)[nH]c1=O,"inconclusive: 56.2 µM [inhibitor, partial curve]"
15,CC(C)(NC(=O)c1cc(Cl)c2ccccc2c1O)C(=O)O,inactive
16,Cc1occc1-c1nnc(SCC(=O)Nc2ccc(F)cc2)n1Cc1ccccc1,"inconclusive: 89.1 µM [inhibitor, single point]"
17,CCc1ccccc1NC(=O)c1cc2nc(-c3ccc(OC)c(OC)c3)cc(C(F)(F)F)n2n1,inactive
18,CCOc1ccc(CCNC(=O)c2nccnc2C(=O)O)cc1OCC,"inconclusive: 89.1 µM [inhibitor, single point]"
19,COC(=O)c1ccccc1NC(=O)CSc1nc2nc(C)cc(C)n2n1,inactive
20,CCOc1cc(/C=N/N=C(N)N)ccc1OCc1ccc(Cl)cc1,"inconclusive: 28.2 µM [inhibitor, partial curve]"
21,COc1cccc(N2CCN(S(=O)(=O)c3ccc(-c4coc(C)n4)cc3)CC2)c1,"inconclusive: 22.4 µM [inhibitor, full curve]"
22,Cc1cccn2c(NCc3ccc4c(c3)OCO4)c(-c3ccc(O)cc3)nc12,"inconclusive: 44.7 µM [inhibitor, partial curve]"
